Measured values reported in PubChem BioAssay AID624417 (National Center for Advancing Translational Sciences (NCATS), 2012).
Values joined by “and” are separate entries in the source; they are usually repeats but may differ in a detail not shown here. Equal entries are not always repeated. Screen size: about 410,000 compounds; about 6,400 (1.6%) were called active. Inconclusive results, whose numbers are uncertain, are shown with a selection of clear calls. The call rests on the fitted dose curve; in most records, active means well fitted inhibition curve with a large enough effect; inconclusive means small, poorly fitted or top-dose-only effect; inactive means no such curve, though single readings can be large or run the other way. Potencies of inconclusive entries are doubtful fits and often do not repeat.

biological target: Glucagon-like peptide 1 receptor (Homo sapiens) (UniProt P43220); assay: qHTS of GLP-1 Receptor Inverse Agonists (Inhibition Mode); details: HEK293 GLP-1R CRE-luciferase, luminescence, 24 h, GLP-1R form is constitutively active; activity change, negative = inhibition: at 38.3 µM (top of the series) unless noted; further: nearly all actives have a fitted effect of over 55% in size
UniProt P43220, sequence (P43220 whole entry, looked up): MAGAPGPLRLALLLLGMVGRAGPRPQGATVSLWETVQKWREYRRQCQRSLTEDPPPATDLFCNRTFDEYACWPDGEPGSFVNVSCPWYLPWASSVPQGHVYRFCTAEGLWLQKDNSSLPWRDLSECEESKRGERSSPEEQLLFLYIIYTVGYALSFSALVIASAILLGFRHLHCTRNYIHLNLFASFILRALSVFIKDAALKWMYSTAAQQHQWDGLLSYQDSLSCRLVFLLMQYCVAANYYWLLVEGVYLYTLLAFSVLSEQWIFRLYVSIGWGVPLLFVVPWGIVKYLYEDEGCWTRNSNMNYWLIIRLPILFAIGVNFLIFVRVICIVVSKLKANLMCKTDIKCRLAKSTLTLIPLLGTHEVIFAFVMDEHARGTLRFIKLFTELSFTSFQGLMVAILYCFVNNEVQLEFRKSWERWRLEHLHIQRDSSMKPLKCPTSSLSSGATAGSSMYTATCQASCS
Method in brief: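 Using stably transfected HEK293 (constitutively active GLP-1R, cAMP-luciferase reporter), compounds were incubated 24 hr and luciferase measured by luminescence.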
On the % scale 0 is the no-effect control and ±100 the full control effect; potency means the concentration at half of the fitted maximal effect; tags describe the fitted curve by direction and shape.

SMILES | Potency | activity change, negative = inhibition
CCOC(=O)c1cc(-c2ccccc2)n(CCCC(=O)Nc2cc(C)ccc2OC)c1C | inconclusive: 22.4 µM [inhibitor, single point] | –
NC(=O)c1ccc(NC(=O)COC(=O)C(Cc2ccccc2)NC(=O)c2ccccc2)cc1 (stereo unspecified) | inactive | –
CCCC[n+]1c2ccccc2cc2ccccc21 | inconclusive: 14.1 µM [inhibitor, single point] | –
CC(C)CCN(Cc1ccco1)C(=O)Cn1ncc2c([nH]c3ccccc32)c1=O | inconclusive: 28.2 µM [inhibitor, single point] | –
O=C(/C=C/c1cccc(F)c1)c1ccc(N2CCOCC2)cc1 | inactive | –
O=C(NCCc1c[nH]c2ccccc12)Nc1cccc2ccccc12 | inconclusive: 28.2 µM [inhibitor, single point] | –
Cc1ccccc1NS(=O)(=O)c1ccc(OCC(=O)NCc2ccco2)cc1 | inconclusive: 10 µM [inhibitor, partial curve, poor fit] | –
Cc1ccc(-n2ncc3c(=O)n(CC(=O)Nc4cccc(Cl)c4)cnc32)cc1C | inactive | –
CN(C)c1ccc(C(CNS(=O)(=O)c2ccc(F)cc2)N2CCc3ccccc32)cc1 (stereo unspecified) | inconclusive: 11.2 µM [inhibitor, single point] | –
CC1CCCC(C)N1C(=O)COC(=O)CNC(=O)c1ccc(Cl)cc1Cl (stereo unspecified) | inactive | –
Cc1cccc(N2CCN(CC(O)COc3ccccc3)CC2)c1 (stereo unspecified) | inconclusive: 10 µM [inhibitor, partial curve, poor fit] | –
COc1ccc(C(=O)c2coc3ccc(O)c(CN4CCCCC4)c23)cc1 | inconclusive: 11.2 µM [inhibitor, single point] | –
O=C(NCCC1=CCCCC1)C1CCN(S(=O)(=O)c2ccc(Br)s2)CC1 | inconclusive: 10 µM [inhibitor, partial curve, poor fit] | –
COC(=O)c1cccc(-n2nnnc2SCC(=O)Nc2nc3c(s2)CCCC3)c1 | inconclusive: 11.2 µM [inhibitor, partial curve, poor fit] | –
O=C(Cc1ccc(S(=O)(=O)N2CCOCC2)s1)Nc1cc(Cl)ccc1Cl | inconclusive: 2.24 µM [inhibitor, full curve, poor fit] | –
Nc1ccccc1SCC(O)Cn1ccc2ccccc21 (stereo unspecified) | – | inconclusive: -81.6% [inhibitor]
CCc1ccc(C(=O)NNC(=O)CN2C(=O)NC(CC)(c3ccccc3)C2=O)cc1 (stereo unspecified) | inconclusive: 28.2 µM [inhibitor, single point] | –
CC(=O)N(CCC1(c2ccc(C)cc2)CCOC(C(C)C)C1)Cc1ccco1 (stereo unspecified) | inconclusive: 28.2 µM [inhibitor, single point] | –
CCCCOc1cccc(C(=O)NC(=S)Nc2cccnc2)c1 | inconclusive: 28.2 µM [inhibitor, single point] | –
COC(=O)C(Cc1c[nH]c2ccccc12)NC(=O)CNC(C)=O (stereo unspecified) | inactive | –
COc1cccc(C(=O)Nc2ccc3c(c2)OC[C@H](C)N(CCc2ccccc2)C[C@@H](C)[C@@H](OC)CN(C)C3=O)c1 | inconclusive: 10 µM [inhibitor, partial curve, poor fit] | –

SMILES | Potency | activity change, negative = inhibition
Cc1ccc(S(=O)(=O)Oc2ccc(N3C(=O)C4C5CCC(C5)C4C3=O)cc2)cc1 (stereo unspecified) | inconclusive: 3.55 µM [inhibitor, full curve, poor fit] | –
O=c1c2ccccc2ncn1-c1ccc(Br)cc1[N+](=O)[O-] | inconclusive: 11.2 µM [inhibitor, single point] | –
O=C(O)c1ccccc1C(=O)Nc1ccc(Nc2ccc([N+](=O)[O-])cc2[N+](=O)[O-])cc1 | inactive | –
COc1ccc(/C(C)=N/NC(=S)NCCc2ccccc2)cc1 | inconclusive: 12.6 µM [inhibitor, single point] | –
COc1ccc(C(=O)Nc2ccc(N3CCOCC3)c(C(F)(F)F)c2)cc1OC | inconclusive: 12.6 µM [inhibitor, partial curve, poor fit] | –
Cc1ccc(-c2n[nH]c(=O)c3ccccc23)cc1S(=O)(=O)N(C)C | inactive | –
COc1cccc(NC(=O)Cn2cc(C#N)c3ccccc32)c1 | inconclusive: 10 µM [inhibitor, partial curve, poor fit] | –
Cc1cc(C)c2sc(N(CCN(C)C)C(=O)c3cc(Cl)sc3Cl)nc2c1 | inconclusive: 11.2 µM [inhibitor, partial curve, poor fit] | –
Cc1cccc(OC2CCN(Cc3nc(CC4CC4)no3)CC2)c1 | active: 12.6 µM | –
COc1cccc(C(c2nnnn2Cc2ccccc2)N2CCN(C3CCCC3)CC2)c1OC (stereo unspecified) | inconclusive: 15.8 µM [inhibitor, single point] | –
O=C(O)/C=C/c1ccc2c(-c3ccccc3)onc2c1 | inactive | –
C(=C\c1ccccc1)/CN1CCN(C(CCc2ccccc2)c2nnnn2-c2ccc3c(c2)OCCO3)CC1 (stereo unspecified) | inconclusive: 10 µM [inhibitor, single point] | –
COc1cccc(OCC(=O)Nc2nnc3n2CCS3)c1 | inactive | –
CCCS(=O)(=O)N1CCC(C(=O)N2CCC(Cc3ccccc3)CC2)CC1 | inconclusive: 8.91 µM [inhibitor, partial curve, poor fit] | –
Cc1cccc(NC(=S)NC(=O)c2cc(-c3ccccc3)nc3ccccc23)c1 | inconclusive: 7.94 µM [inhibitor, partial curve, poor fit] | –
Cc1ccc(CN2C(=O)c3ccccc3Sc3ccc(C(=O)NCCCN4CCOCC4)cc32)cc1 | inconclusive: 12.6 µM [inhibitor, single point] and inconclusive: 28.2 µM [inhibitor, single point] | –
CC(C)(C)C(=O)NCCCc1nc2ccccc2n1CCCOc1ccc(Cl)cc1 | inconclusive: 7.08 µM [inhibitor, partial curve, poor fit] | –
CC(CC(=O)Nc1ccncc1)c1ccccc1 (stereo unspecified) | inactive | –
CCc1ccc(CNC(=O)CN2C(=O)CCn3nc(-c4cn(C)c5ccccc45)cc32)cc1 | inactive | –
O=C(CN1C(=O)NC2(CCCCCC2)C1=O)c1ccc2c(c1)OCCO2 | inconclusive: 5.62 µM [inhibitor, full curve, poor fit] | –
